# Results taken from article PMC4336329 (PLoS ONE, 2015).
# The campaign covered roughly 310,000 compounds. About 14,000 (4.5%) showed an effect of 50% or more. Effects have a minus sign here. The list shows a part of the results.
# Target: human ether-à-go-go-related gene (hERG) potassium channel (human, UniProt Q12809)
# Experiment: primary screen, population patch clamp on CHO cells stably expressing hERG
# 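Also: peak tail current of the secondary pulse compared with the same well before compound.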
# Sequence of human ether-à-go-go-related gene (hERG) potassium channel (Q12809 whole entry, looked up): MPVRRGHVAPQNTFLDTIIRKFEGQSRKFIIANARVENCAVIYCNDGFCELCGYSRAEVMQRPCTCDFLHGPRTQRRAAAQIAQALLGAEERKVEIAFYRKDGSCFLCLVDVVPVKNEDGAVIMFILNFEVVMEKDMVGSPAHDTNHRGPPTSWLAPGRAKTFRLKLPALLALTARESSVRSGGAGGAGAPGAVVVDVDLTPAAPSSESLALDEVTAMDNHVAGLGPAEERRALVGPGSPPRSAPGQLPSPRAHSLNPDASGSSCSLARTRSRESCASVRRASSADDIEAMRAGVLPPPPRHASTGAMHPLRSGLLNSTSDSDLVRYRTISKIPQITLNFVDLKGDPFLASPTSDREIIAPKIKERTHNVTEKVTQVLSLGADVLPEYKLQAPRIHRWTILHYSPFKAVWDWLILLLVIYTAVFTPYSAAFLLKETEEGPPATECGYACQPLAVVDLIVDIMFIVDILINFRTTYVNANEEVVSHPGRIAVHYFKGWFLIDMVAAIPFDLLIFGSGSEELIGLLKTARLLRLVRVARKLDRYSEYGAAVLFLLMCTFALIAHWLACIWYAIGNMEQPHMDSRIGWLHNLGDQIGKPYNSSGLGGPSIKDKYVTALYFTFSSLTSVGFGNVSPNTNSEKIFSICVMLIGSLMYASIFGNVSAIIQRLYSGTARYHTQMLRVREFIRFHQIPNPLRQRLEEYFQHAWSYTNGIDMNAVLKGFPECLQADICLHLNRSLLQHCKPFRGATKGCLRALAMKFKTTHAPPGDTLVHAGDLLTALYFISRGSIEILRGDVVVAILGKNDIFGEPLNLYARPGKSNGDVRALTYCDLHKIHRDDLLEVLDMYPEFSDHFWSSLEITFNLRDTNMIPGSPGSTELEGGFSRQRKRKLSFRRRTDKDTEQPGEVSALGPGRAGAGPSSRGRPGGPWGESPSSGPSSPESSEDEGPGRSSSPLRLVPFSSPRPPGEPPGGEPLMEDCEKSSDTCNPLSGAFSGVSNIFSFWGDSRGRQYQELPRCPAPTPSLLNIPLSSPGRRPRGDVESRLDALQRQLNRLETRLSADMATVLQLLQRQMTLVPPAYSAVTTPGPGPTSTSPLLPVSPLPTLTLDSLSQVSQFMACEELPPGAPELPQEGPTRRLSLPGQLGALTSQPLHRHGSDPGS
row,SMILES,"hERG current change (%, negative = inhibition) at 10uM [%]"
1,CCC1(C)CC2(CCCN(CCC(O)(c3ccccc3)c3ccccc3)C2)CCO1.Cl (centres unmarked),-45.7
2,Cc1cc(C(=O)OCC(=O)NCCc2ccccc2)c2ccccc2n1,-17.7
3,COc1ccc(C(NC(=O)c2ccc(=O)[nH]c2)C(=O)Nc2ccc(C(C)C)cc2)cc1 (centres unmarked),-2.31
4,COC(=O)C(Cc1ccccc1)NC(=O)C12CC3CC(CC(C3)C1)C2 (centres unmarked),-4.07
5,Cc1ccc(S(=O)(=O)N2CCCOC2CNC(=O)C(=O)NCc2ccncc2)cc1 (centres unmarked),1.48
6,COc1cc(NC(=O)c2c(F)c(F)c(F)c(F)c2F)c(OC)cc1Cl,-0.179
7,CCOC(=O)c1cc2ccc3ccccc3c2oc1=O,-2.36
8,COCCCn1c(Cc2csc(Nc3cccc(Cl)c3)n2)nnc1SCC(=O)OC,-47.1
9,Cc1cc(C)cc(OCC(=O)N(Cc2cccs2)C2CCS(=O)(=O)C2)c1 (centres unmarked),-39.7
10,COCCNC(=O)C(=O)Nc1cccc(Br)c1,8.78
11,COc1ccc(NC(=O)CSc2nc3[nH]ncc3c(=O)n2-c2ccccc2OC)cc1OC,5.34
12,O=C(CCCc1c[nH]c2ccccc12)Nc1ncccc1O,14.7
13,CC1CCCN(S(=O)(=O)c2ccc(CN3C(=O)c4cccnc4C3=O)cc2)C1 (centres unmarked),-58
14,Cc1ccc2[nH]c(C)c(CCNCc3ccco3)c2c1.Cl,7.23
15,COC(=O)c1cn(Cc2cc(OC)ccc2OC)cc(F)c1=O,12.2
16,O=C(c1ccc(S(=O)(=O)N2CCCC2)cc1)N1CCC(CN2C(=O)c3cccc4cccc(c34)C2=O)CC1,10.5
17,CCOc1ccc(/C=C2/SC(=O)NC2=S)cc1,17
18,COC(=O)c1ccc(N2C(=O)CC(N3CCN(c4ccccc4)CC3)C2=O)cc1 (centres unmarked),11.1
19,COCCCNCCCCOc1ccc(Br)cc1C.O=C(O)C(=O)O,-64.6
20,CCN(C(=O)CSc1nc2ccccc2n1CCc1ccccc1)C1CCS(=O)(=O)C1 (centres unmarked),-21.8
21,O=C(Nc1ccc(S(=O)(=O)N2CCCC2)cc1)c1ccc2c(=O)n3c(nc2c1)CCCCC3,9.23
22,Fc1ccc(COc2cccc3cccnc23)cc1,-8.3

row,SMILES,"hERG current change (%, negative = inhibition) at 10uM [%]"
1,O=c1sc2ccccc2n1CCCOc1ccccc1,-3.76
2,Cc1ccc2[nH]c(O)c(N=NC(=O)c3ccc(NS(=O)(=O)c4cccs4)cc3)c2c1,2.7
3,O=C(Cn1cnc2c(nnn2Cc2ccc(F)cc2)c1=O)NC1CCCC1,10.6
4,Cc1ccc(CN(c2ccc(C(=O)N3CCCC3)cc2)S(C)(=O)=O)cc1,9.91
5,O=C(/C=C/c1ccc([N+](=O)[O-])cc1)/C=C/c1ccco1,-5.91
6,Cc1ccccc1NC1=C(C(=O)c2ccccc2)N(C)S(=O)(=O)c2ccccc21,3.33
7,Cc1ccccc1-c1noc(CNC(=O)COc2ccccc2)n1,-10.4
8,O=c1[nH]n(-c2ccc([N+](=O)[O-])cc2)c(=O)c2ccccc12,5.47
9,NC(=O)c1cc([N+](=O)[O-])ccc1NCc1ccc(N)cc1,10.5
10,NS(=O)(=O)c1cccc(NC(=O)c2cccc(Oc3ccccc3)c2)c1,0.243
11,CCOC(=O)c1c(NC(=O)COC(=O)CCCOc2ccc(OC)cc2)sc(C(=O)NC)c1C,-7.04
12,CCN1CCN(c2ccc(S(=O)(=O)N3CCCCC3)cc2NC(=O)Cc2ccc(OC)cc2)CC1,-60.1
13,Cc1ccc(-c2nnc(SCC(=O)Nc3ccc4c(c3)OCCO4)n2N)cc1,-2.8
14,O=C(OCC(=O)N1CCOCC1)c1ccccc1Cc1ccccc1,-35.2
15,CCCNC(=O)c1c(O)c2cccc3c2n(c1=O)CCC3,14.1
16,Cc1ccc(OC(=O)c2ccccc2C(=O)OCC(F)(F)C(F)F)cc1,16.9
17,COc1ccc(-c2cnn3c4c(c(C)nc23)CCN4C(C)C)cc1OC,12.7
18,Cc1ccc(NC(=O)C/C(N)=N/OC(=O)Nc2cccc(Cl)c2)cc1,7.87
19,CC(C)Cc1ccc(C(C)C(=O)Nc2cccnc2)cc1 (centres unmarked),12
20,CCCCc1nnc2c(N(C)S(=O)(=O)c3ccccc3)nc3ccccc3n12,-13.5
21,O=c1c2[nH]c3ccccc3c2ncn1Cc1ccccn1,-0.569
22,O=C(c1ccccc1NS(=O)(=O)c1ccc(F)cc1)N1CCOCC1,16.9

row,SMILES,"hERG current change (%, negative = inhibition) at 10uM [%]"
1,Cc1nn(-c2cc(N3CCCCCC3)ccc2[N+](=O)[O-])c(=O)c2ccccc12,6.02
2,CCC(C(=O)Nc1cc(Cl)ccc1OC)c1ccccc1 (centres unmarked),7.11
3,CC(C)n1nc(C(=O)Nc2ccc3c(c2)OCO3)c2ccccc2c1=O,11
4,COc1ccc2[nH]c3c(c2c1)CCNC3=O,7.33
5,CC(C)NC(=O)c1ccc(COc2cc(Cl)ccc2Cl)o1,6.03
6,CN(CCCNC(=O)CSc1cc(=O)n(C)c2cc(Cl)ccc12)Cc1ccccc1,-63.5
7,Cc1cccn2c(=O)c(/C=C(\C#N)C(=O)NCc3ccco3)c(N3CCOCC3)nc12,-50.9
8,CCN(CCN1CCCC1)C(=O)C1CCC(=O)N(CCCN2CCOCC2)C1 (centres unmarked),12.8
9,CCc1cccc(C)c1NC(=O)COC(=O)c1ccc2c(c1)S(=O)(=O)c1ccccc1C2=O,-0.0165
10,CN(c1ncc(C(F)(F)F)cc1Cl)N1C(=O)C2ONC3(C(=O)CC(C)(C)CC3=O)C2C1=O (centres unmarked),11
11,CC(C)Cc1ccc(/C=C/C(=O)N2CCCCC2)cc1,-32.1
12,CN(C(=S)Nc1ccc(SC(F)F)cc1)c1ccc(O)cc1,-21.3
13,CCOC(=O)N1CCN(c2ncc(C(F)(F)F)cc2Cl)CC1,21.4
14,CC(C)OC(=O)CC1C(=O)NCCN1C(=S)NC(=O)c1ccccc1 (centres unmarked),-3.57
15,CC(=O)NC(Cc1ccc(F)c(F)c1)C(=O)NC1CCN(c2c(Cc3ccccc3)c(C)nc3ncnn23)CC1 (centres unmarked),-58.7
16,O=S(=O)(c1ccccc1)N1CCC(n2cnc3ccccc32)CC1,-64
17,COc1ccc2c(c1)CCc1c(C(=O)N(C)c3ccccc3)noc1-2,1.39
18,Cc1c(C(=O)NNC(=O)c2ccncc2)oc2ccccc12,-5.92
19,COc1ccc(CCC(=O)NCC2CCCCC2)cc1OC,13.4
20,Cc1ccc(C)c(NC(=O)C2CC(O)CN2C(=O)OCc2ccccc2)c1 (centres unmarked),3.96
21,FC(F)(F)c1cccc(Cc2noc(CN3CCCC(CN4CCCC4)C3)n2)c1 (centres unmarked),-45.5
22,COc1ncccc1C(=O)N1CCCC(C(=O)c2cccc(OC(C)C)c2)C1 (centres unmarked),1.87

row,SMILES,"hERG current change (%, negative = inhibition) at 10uM [%]"
1,COc1cc(C(=O)NC(=S)Nc2ccccc2[N+](=O)[O-])cc(OC)c1OC,12.7
2,Cc1ccc(C(=O)OCC(=O)NNC(=O)c2cccs2)c(O)c1,-3.54
3,Cc1cc(C)n(C(=O)c2cc(F)c(F)cc2C)n1,4.1
4,CN(CCOc1ccccc1)C(=O)C1CCN(C(=O)c2ccc(Cl)cc2)CC1,-47.9
5,CCN1CCN(CCCNC(=O)c2ccc(/C=C3/Oc4ccccc4N(Cc4cccc(C)c4)C3=O)cc2)CC1,-19.1
6,O=C(Nc1nc2ccccc2n1CCN1CCOCC1)c1ccccc1,-6.69
7,Cc1ccc(NC(=O)C2CCCN2S(=O)(=O)c2ccc3c(c2)n(C)c(=O)c(=O)n3C)cc1 (centres unmarked),-11.4
8,C/C(=N/N=C1\SCC(=O)N1c1ccccc1)c1ccc(C)cc1,14.3
9,CCOC(=O)N1CCN(C2CCCN(C(=O)c3ccccc3N(C)C)C2)CC1 (centres unmarked),10.1
10,Nc1nc(COC(=O)C2CC(=O)N(Cc3ccccc3)C2)nc(Nc2ccccc2)n1 (centres unmarked),-51.9
11,O=C(NC1CCSC1=O)c1cccc(C(=O)NC2CCSC2=O)c1 (centres unmarked),5.68
12,CCCCC(=O)N/N=C/c1c(O)n(CC)c(=S)[nH]c1=O,2.34
13,COc1ccc(-c2nsc3c(N4CCCCC4)ncnc23)cc1,-18.1
14,CCSc1nnc(NC(=O)c2cccc(OCc3c(C)noc3C)c2)s1,-4.73
15,O=C(COc1ccccc1C(=O)O)NC1CCCc2ccccc21 (centres unmarked),6.21
16,O=C(OCC(=O)N1CCN(c2ccccc2)CC1)c1cccs1,5.21
17,Cc1ccc(-c2csc(NC(=O)C3CC(=O)N(Cc4ccco4)C3)n2)cc1 (centres unmarked),-25.5
18,Cc1nn(Cc2ccccc2)c(C)c1C(=O)Nc1ccc(N2CCOCC2)cc1,3.71
19,O=C(O)c1ccc(-c2ccc(/C=N/Nc3ccc([N+](=O)[O-])cc3)o2)cc1,22.1
20,Cc1ccc(/C=C/C(=O)OCC(=O)Nc2cccc(S(=O)(=O)N(C)C)c2)o1,-14.6
